We go through 40 sequences from the supplement of paper PMC7826260.

This is one part of the list. Viral Rep nickase domains cut single-stranded DNA in vitro (3 µM enzyme, 1 h, 37 °C); shown is the middle of each 90-letter strand. Numbers give uncut DNA relative to the enzyme-free pool, as log2; strong cutting gives strongly negative numbers. There is no active / inactive call. Because reads are shares of a total, they shift together; where an enzyme cuts many sequences, the uncut ones exceed 0.

The test relates to T1, Rep nickase domain of tomato golden mosaic virus.
T1 sequence (residues 1-124, tag not shown): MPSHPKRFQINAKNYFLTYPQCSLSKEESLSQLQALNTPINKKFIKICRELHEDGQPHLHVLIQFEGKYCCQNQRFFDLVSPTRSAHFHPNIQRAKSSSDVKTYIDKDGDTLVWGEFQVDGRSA
Nature of the test: uncleaved DNA left, log2 of reads against the no-enzyme library (log2 ratio); higher = less cleavage (more negative = more Rep cleavage of the k-mer); sequences stand for … in CTCGTCCG…ACCGGAGA
The protocol:
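A pool of 90-nt single-stranded DNAs with seven random bases just before the constant AC of the nick site (name = the seven bases) was cut by 3 µM recombinant His6-SUMO-tagged Rep nickase domain (300 nM DNA, 50 mM HEPES pH 8.0, 50 mM NaCl, 1 mM MnCl2, 1 h, 37 °C, three replicates). Uncut DNA was amplified and sequenced.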
As for GCTCCCC, the “uncleaved DNA left (log2)” value is -0.0653. Consider TAATCAT, for which the “uncleaved DNA left (log2)” value was -3.93. For GGGTGTC, the “uncleaved DNA left (log2)” value is -0.113.

Turning to AAGTGAA, the “uncleaved DNA left (log2)” value worked out at 0.18. In the case of TAATAAG, the “uncleaved DNA left (log2)” value was found to be 0.0168. Turning to AGACCAG, the “uncleaved DNA left (log2)” value was found to be 0.0203. As to GCGTCCT, the “uncleaved DNA left (log2)” value is -0.0235.

In the case of CGCCGCC, the “uncleaved DNA left (log2)” value was -0.283. The result for GCGGAGT reads -0.00443; that for GCTGCCG, -0.00349; that for ACTCTAC, -0.0742.

GATAGTG: the “uncleaved DNA left (log2)” value was 0.0461. With TGGGCCC, the “uncleaved DNA left (log2)” value was 0.0761. As for GGCACAA, the figure is -0.0249; as for GCGATTA, 0.0339. As for AGGCTGC, the “uncleaved DNA left (log2)” value was found to be 0.0877.

Take GTCATTA: the “uncleaved DNA left (log2)” value was determined as 0.0737. As for TAAAGCC, the “uncleaved DNA left (log2)” value is -0.0369. Regarding TGAGTGT, the “uncleaved DNA left (log2)” value is 0.0784. With CGAAAAT, the “uncleaved DNA left (log2)” value was -0.133. As for TCCGTGG, the “uncleaved DNA left (log2)” value turned out to be 0.025. The result for GCATAAA reads 0.0551; that for ACTGACA, -0.025.

As for AGGGCTT, the “uncleaved DNA left (log2)” value came out at 0.011. As to ATCTCGA, the “uncleaved DNA left (log2)” value worked out at 0.0588.

Consider GCAAATT, for which the “uncleaved DNA left (log2)” value turned out to be 0.0514. On to CATTATT, for which the “uncleaved DNA left (log2)” value is -3.85.

Consider GGGCACA, for which the “uncleaved DNA left (log2)” value is 0.0746. Consider ATCAGCC, for which the “uncleaved DNA left (log2)” value is -0.0336.

With ATTAGGT, the “uncleaved DNA left (log2)” value was 0.00241. For the sequence CGGCCGC, the “uncleaved DNA left (log2)” value stood at 0.000633. In the case of CTAGGCC, the “uncleaved DNA left (log2)” value stood at 0.0202. Regarding TGCGAAG, the “uncleaved DNA left (log2)” value was -0.0811. For the sequence CCCCCTA, the “uncleaved DNA left (log2)” value is -0.0713. TCCTAAG: the “uncleaved DNA left (log2)” value is -0.0841. For TCGTTTT, the “uncleaved DNA left (log2)” value is -0.109. As for AGAGTTA, the figure is 0.237; as for GTCATCA, 0.134; as for AGTGGAC, 0.0944.

Regarding GCAGCCA, the “uncleaved DNA left (log2)” value was determined as 0.099.
